Source: the supplement of paper PMC12217912
The list shows a part of the results. The full chains were built here from the parent and the listed change. Values near 0.05 are background.

B1: TEV protease; numbered along this chain (parent)
chain: MGESLFKGPRDYNPISSSICHLTNESDGHTTSLYGIGFGPFIITNKHLFRRNNGTLVVQSLHGVFKVKDTTTLQQHLVDGRDMIIIRMPKDFPPFPQKLKFREPQREERICLVTTNFQTKSMSSMVSDTSCTFPSGDGIFWKHWIQTKDGQCGSPLVSTRDGFIVGIHSASNFTNTNNYFTSVPKNFMELLTNQEAQQWVSGWRLNADSVLWGGHKVFMVKPEEPFQPVKEATQL

Variants of: B1
Test: raw area under fraction-flipped curve 0-4 h after induction (AUC4h, not background-subtracted), DNA-recorder readout of cleavage of the substrate (dimensionless); higher = more cleavage of the substrate by the protease variant
Settings: temperature: 34 °C; time window: 0-4 h after rhamnose induction
Procedure: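 In vivo DNA recorder in E. coli TOP10(DE3) ΔrhaA at 34 °C. Each TEVp single-site mutant (parent TEVp 0) is paired with a single-site variant of the 7-mer TEVs (canonical ENLYFQ|S). The substrate sits between flexible linkers in a Bxb1-sfGFP-TEVs-SsrA fusion, so cleavage stabilises Bxb1 and speeds flipping of a recombination array, read by NGS. The value is the raw area under the fraction-flipped curve over 0-4 h after rhamnose induction (AUC4h), with ≥20 reads per time point. It is not background-subtracted; inactive controls average about 0.047.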
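Note: Bxb1 expression induced with 0.2% (w/v) L-rhamnose at OD600 near 0.5, cultures sampled hourly, flipped fraction per protease–substrate barcode pair counted by paired-end Illumina sequencing.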

Variant	area with substrate ENAYFQS	area with substrate ENCYFQS	area with substrate ENDYFQS	area with substrate ENEYFQS	area with substrate ENFYFQS	area with substrate ENGYFQS	area with substrate ENHYFQS	area with substrate ENMYFQS	area with substrate ENPYFQS	area with substrate ENQYFQS	area with substrate ENRYFQS	area with substrate ENSYFQS	area with substrate ENVYFQS	area with substrate ENYYFQS	area with substrate ENKYFQS	area with substrate ENNYFQS	area with substrate ENTYFQS	area with substrate ENWYFQS	area with substrate ENIYFQS
MGESLFKGPRDYNPISSSICHLTNESDGHTTSLYGIGFGPFIITNKHLFRRNNGTLVVQSLHGVFKVKDTTTLQQHLVDGRDMIIIRMPKDFPPFPQKLKFREPQREERICLVTTNFQTKSMSSMVSDTSCTFPSGDGIFWKHWIQTKDGQCGSPLVSTRDGFIVGIHSASNFTNTNNYFTSVPKNFMELLSNQEAQQWVSGWRLNADSVLWGGHKVFMVKPEEPFQPVKEATQL [T192S]	0.0566	0.0567	0.083	0.0424	0.0583	0.0547	0.0691	0.0734	0.0741	0.0723	0.0503	0.0718	0.0745	0.0631					
MGESLFKGPRDYNPISSSICHLTNESDGHTTSLYGIGFGPFIITNKHLFRRNNGTLVVQSLHGVFKVKDTTTLQQHLVDGRDMIIIRMPKDFPPFPQKLKFREPQREERICLVTTNFQTKSMSSMVSDTSCTFPSGDGIFWKHWIQTKDGQCGSPLVSTRDGFIVGIHSASNFTNTNNYFTSVPKNFMELLRNQEAQQWVSGWRLNADSVLWGGHKVFMVKPEEPFQPVKEATQL [T192R]	0.0591	0.05	0.0618	0.0563	0.0634			0.0495	0.0634	0.055	0.0517	0.0589		0.0425	0.0715	0.0633	0.0337	0.0244	
MGESLFKGPRDYNPISSSICHLTNESDGHTTSLYGIGFGPFIITNKHLFRRNNGTLVVQSLHGVFKVKDTTTLQQHLVDGRDMIIIRMPKDFPPFPQKLKFREPQREERICLVTTNFQTKSMSSMVSDTSCTFPSGDGIFWKHWIQTKDGQCGSPLVSTRDGFIVGIHSASNFTNTNNYFTSVPKNFMELLTNQEAQQWVSGWILNADSVLWGGHKVFMVKPEEPFQPVKEATQL [R204I]	0.0602	0.0672	0.0559	0.0675	0.059	0.0583	0.0594	0.0596	0.0546	0.0527	0.0827	0.0538	0.0797	0.051	0.064	0.0551	0.0663	0.0555	0.099
MGESLFKGPRDYNPISSSICHLTNESDGHTTSLYGIGFGPFIITNKHLFRRNNGTLVVQSLHGVFKVKDTTTLQQHLVDGRDMIIIRMPKDFPPFPQKLKFREPQREERICLVTTNFQTKSMSSMVSDTSCTFPSGDGIFWKHWIQTKDGQCGSPLVSTRDGFIVGIHSASNFTNTNNYFTSVPKNFMELLTNQEAQQWVDGWRLNADSVLWGGHKVFMVKPEEPFQPVKEATQL [S201D]	0.0696		0.0628	0.0595	0.0647	0.054	0.0559	0.0486	0.0465	0.0628		0.0682	0.0725			0.0475	0.0845	0.0543	0.0432
MGESLFKGPRDYNPISSSICHLTNESDGHTTSLYGIGFGPFIITNKHLFRRNNGTLVVQSLHGVFKVKDTTTLQQHLVDGRDMIIIRMPKDFPPFPQKLKFREPQREERICLVTTNFQTKSMSSMVSDTSCTFPSGDGIFWKHWIQTKDGQCGSPLVSTRDGFIVGIHSASNFTNTNNYFTSVPKNFMELLTNQEAQQWVSGWRLNMDSVLWGGHKVFMVKPEEPFQPVKEATQL [A207M]	0.0663		0.0553						0.0484	0.0578		0.0607	0.0759	0.0496					
MGESLFKGPRDYNPISSSICHLTNESDGHTTSLYGIGFGPFIITNKHLFRRNNGTLVVQSLHGVFKVKDTTTLQQHLVDGRDMIIIRMPKDFPPFPQKLKFREPQREERICLVTTNFQTKSMSSMVSDTSCTFPSGDGIFWKHWIQTKDGQCGSPLVSTRDGFIVGIHSASNFTNTNNYFTSVPKNFMELLTNQEAQQWVSGWRLNCDSVLWGGHKVFMVKPEEPFQPVKEATQL [A207C]	0.0474		0.0651	0.0609		0.0723	0.0478		0.0641		0.0576	0.0592	0.0864	0.0547				0.0502	
MGESLFKGPRDYNPISSSICHLTNESDGHTTSLYGIGFGPFIITNKHLFRRNNGTLVVQSLHGVFKVKDTTTLQQHLVDGRDMIIIRMPKDFPPFPQKLKFREPQREERICLVTTNFQTKSMSSMVSDTSCTFPSGDGIFWKHWIQTKDGQCGSPLVSTRDGFIVGIHSASNFTNTNNYFTSVPKNFMELLTNQEAQQWVSGWRLNIDSVLWGGHKVFMVKPEEPFQPVKEATQL [A207I]	0.0599			0.0841		0.0643		0.0659		0.0506	0.0658				0.0509	0.0591			
MGESLFKGPRDYNPISSSICHLTNESDGHTTSLYGIGFGPFIITNKHLFRRNNGTLVVQSLHGVFKVKDTTTLQQHLVDGRDMIIIRMPKDFPPFPQKLKFREPQREERICLVTTNFQTKSMSSMVSDTSCTFPSGDGIFWKHWIQTKDGQCGSPLVSTRDGFIVGIHSASNFTNTNNYFTSVPKNFMELLTNQEAQQWCSGWRLNADSVLWGGHKVFMVKPEEPFQPVKEATQL [V200C]	0.0665	0.0657		0.0602	0.0607	0.0655	0.0289		0.0563	0.0614	0.067	0.0613	0.0757			0.0502	0.0552	0.0551	0.0955
MGESLFKGPRDYNPISSSICHLTNESDGHTTSLYGIGFGPFIITNKHLFRRNNGTLVVQSLHGVFKVKDTTTLQQHLVDGRDMIIIRMPKDFPPFPQKLKFREPQREERICLVTTNFQTKSMSSMVSDTSCTFPSGDGIFWKHWIQTKDGQCGSPLVSTRDGFIVGIHSASNFTNTNNYFTSVPKNFMELLTNQEAQQWYSGWRLNADSVLWGGHKVFMVKPEEPFQPVKEATQL [V200Y]	0.0588			0.0639	0.0557	0.0686	0.0639	0.0605		0.0568	0.0633	0.0705	0.0652	0.0783	0.0587	0.0627			0.0812
